Screen size: about 94,000 compounds; about 6,200 (6.6%) were called active. The inconclusive results got no clear call from the source; some entries with a clear call stand among them for comparison. Calls follow the shape of the dose curve; as a rule, active = well fitted inhibition curve with a large enough effect; inconclusive = small, poorly fitted or top-dose-only effect; inactive = flat fitted curve, though single readings scatter. A potency beside an inconclusive call is a rough fit, not a confirmed value.
Assay: Cytotoxic Profiling in HEK 293 Cell Line of Diverse Libraries Using Quantitative High-Throughput Screening; also: nearly all actives have a fitted effect of over 60% in size
Settings: HEK 293 viability, ATP luminescence (CellTiter-Glo), 48-72 h; series mostly up to 115 µM
Summary of the method: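 Viability of HEK 293 cells, plated at 250 cells/well, was judged by cellular ATP after compound treatment for 48 or 72 hr. Luminescence was imaged 10 min after CellTiter-Glo addition at room temperature.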
Potency is read from the fitted curve at half-maximal effect; tags tell the direction and shape of the fitted curve.

| Structure (SMILES) | Potency |
| --- | --- |
| CS(=O)(=O)N1CCC(C2CCN(C(=O)Cc3ccc(Cl)cc3)C2)CC1 (configuration not stated) | inactive |
| O=C1c2c(-c3nc(-c4ccsc4)no3)nnn2CCN1CCOc1ccc(F)cc1 | inconclusive: 89.1 µM [inhibitor, single point] |
| CC(C)C[C@H](CO)NC(=O)C[C@@H]1c2nc(NC(=O)c3ccco3)sc2C[C@@H]2[C@](C)(CO)[C@H](O)CC[C@]21C | inactive |
| CS(=O)(=O)N(C1CC1)C1CCOC2(CCN(C(=O)Nc3ccccc3)CC2)C1 (configuration not stated) | inactive |
| CCN1c2cc(C(=O)NC3CCCC3)ccc2C(=O)N2CCCCCC21 (configuration not stated) | inconclusive: 44.7 µM [inhibitor, partial curve, poor fit] |
| O=C(Cn1cccc1-c1nc(-c2ccccc2)no1)NCc1ccc(F)cc1Cl | inconclusive: 50.1 µM [inhibitor, partial curve, poor fit] |
| CC1CCN(c2ccc(-c3cccc(N)c3)nn2)CC1 | active: 31.6 µM |
| CCn1nccc1C(=O)NCc1cc(C)cc2c(C)c(-c3ccccc3)[nH]c12 | active: 28.2 µM |
| Cc1nc(-c2ccc(Cl)cc2)n(Cc2ccccc2)c(=O)c1CCO | active: 44.7 µM |
| Cc1noc(C)c1CCC(=O)NC1CCCc2c1[nH]c1ccc(F)cc21 (configuration not stated) | inconclusive: 50.1 µM [inhibitor, partial curve, poor fit] |
| Oc1ccc(-c2nc(C3CC3)nc3c2CCN(Cc2cccc(F)c2)CC3)cc1 | inconclusive: 56.2 µM [inhibitor, partial curve, poor fit] |
| Cc1ccccc1CC(=O)N1CC(C(=O)NCCc2ccncc2)C2(CCOCC2)C1 (configuration not stated) | inactive |
| CC1(CNc2ccccc2)COc2ccc(C(=O)NC3CCC(O)CC3)cc2N1 (configuration not stated) | inconclusive: 100 µM [inhibitor, partial curve, poor fit] |
| O=C1CCCCC(Cc2ccccc2)(C(=O)NC2CCS(=O)(=O)C2)N1 (configuration not stated) | inactive |
| Cc1csc(Nc2ccc3c(n2)CN(Cc2ccccc2C)C(=O)CO3)n1 | active: 25.1 µM |
| Cc1nnc2ccc(N3CCC(N[S+](C)(=O)[O-])CC3)nn12 | inactive |
| COc1ccc(-n2nc(C)c([C@@H]3C=C[C@@H](NC(=O)NC4CCCCC4)C3)c2C)cc1 | inconclusive: 56.2 µM [inhibitor, partial curve, poor fit] |
| COCCn1c(=O)c(C(=O)N2CCN(C(=O)c3ccccc3C)CC2)nc2cccnc21 | inactive |
| O=C(c1nnc(CNc2ccc(OC(F)(F)F)cc2)n1-c1ccccc1)N1CCC[C@@H]1CN1CCCC1 | active: 70.8 µM |
| CCOC(=O)CNC(=O)c1ccc2c(c1)N(S(C)(=O)=O)CC2 | inactive |
| CC(C)C[C@@H]1N[C@H](C(=O)O)Cc2cn(Cc3nccn3C)c3cccc1c23 | inactive |
| CC(=O)Nc1ccc(S(=O)(=O)N2CC[C@H](c3nc4ccccc4o3)C2)cc1 | inconclusive: 112 µM [inhibitor, partial curve] |
| CC(C)c1noc(-c2cn(C3CCN(C(=O)c4ccc5ccccc5n4)C3)nn2)n1 (configuration not stated) | inconclusive: 50.1 µM [inhibitor, partial curve, poor fit] |

| Structure (SMILES) | Potency |
| --- | --- |
| COc1ccc(-c2n[nH]c3c2CC(=O)N(Cc2ccccn2)C3)cc1F | inconclusive: 126 µM [inhibitor, single point] |
| CC(C)(C)CC(=O)Nc1nc2c(s1)C[C@@H]1[C@](C)(CO)[C@H](O)CC[C@@]1(C)[C@@H]2CC(=O)NC1CCCC1 | inactive |
| CCC(=O)Nc1ccc(C2(C(=O)N3CCN(c4ccccc4F)CC3)CCC2)cc1 | inconclusive: 89.1 µM [inhibitor, single point] |
| Cc1nn(-c2ccccc2)c2c1C(C1CC1)N(C1CN(C(=O)C3CCCC3)C1)C2=O (configuration not stated) | active: 44.7 µM |
| O=C1[C@H]2CN(Cc3ccc(C(F)(F)F)cc3)C[C@H]2C(=O)N1CCc1ccccc1 | active: 35.5 µM |
| CCN1c2cc(C(=O)Nc3cccc(F)c3)ccc2C(=O)N2CCCCCC21 (configuration not stated) | inconclusive: 25.1 µM [inhibitor, partial curve, poor fit] |
| O=C(Cc1c(F)cccc1Cl)N1CCN(c2cc(-c3cccs3)[nH]n2)CC1 | inconclusive: 50.1 µM [inhibitor, partial curve, poor fit] |
| Cc1cccc(Nc2nc(N)nc(CN3CCOCC(O)C3)n2)c1 (configuration not stated) | inactive |
| Cc1ccc(C2=NC3(CCN(C(=O)c4n[nH]c5c4CCCC5)CC3)ON2)cc1 | inconclusive: 70.8 µM [inhibitor, partial curve, poor fit] |
| Cc1noc(C)c1-c1cc2c(cc(C)n2C)c(NCCCn2ccnc2)n1 | inconclusive: 70.8 µM [inhibitor, partial curve, poor fit] |
| O=C(NC1CCN(c2cc(-c3ccccc3)[nH]n2)CC1)c1cc(F)ccc1Cl | inconclusive: 50.1 µM [inhibitor, partial curve, poor fit] |
| CCCN1CCC2(CCN([S+](=O)([O-])c3cccc(C(F)(F)F)c3)CC2)Oc2ccccc21 | inconclusive: 50.1 µM [inhibitor, partial curve, poor fit] |
| CCc1nncn1C1CCN(S(=O)(=O)c2ccc(C)c(Cl)c2)CC1 | inactive |
| COc1ccccc1OCc1cc(C(=O)NCc2cccc(C)c2)n[nH]1 | inconclusive: 89.1 µM [inhibitor, single point] |
| COc1ccc(-c2cc(-c3ccc(N4CCOCC4)nc3)cn3cncc23)cn1 | inconclusive: 100 µM [inhibitor, partial curve] |
| COc1ccc(-c2cn3c(n2)CO[C@@H](CNS(=O)(=O)c2ccc(C)cc2)C3)cc1 | inactive |
| CCNC(=O)N1CCc2c(sc3ncnc(N(C)C)c23)C1 | inactive |
| Cc1ccc([S+](=O)([O-])N2CCN(c3nccc(Nc4ccccc4Cl)n3)CC2)cc1 | inconclusive: 17.8 µM [inhibitor, full curve] |
| CCn1ccnc1CNc1ccc(-c2nc(-c3ccccc3C)no2)cn1 | inconclusive: 63.1 µM [inhibitor, partial curve, poor fit] |
| CCC1=C(C(=O)OC)C(c2ccccc2OC)N2C(CC(=O)NCC3CC3)=CSC2=N1 (configuration not stated) | inconclusive: 100 µM [inhibitor, single point] |
| O=C(c1cc(F)ccc1F)N1CCC(n2cc(-c3nc(C4CC4)no3)nn2)C1 (configuration not stated) | inactive |
| O=C(NCc1ccccn1)C1CCN(C(=O)c2ncn3c2COC(c2ccc(F)cc2)C3)CC1 (configuration not stated) | inactive |
| C[C@@H](c1ccccc1)N1C(=O)[C@@H]2CN(C(=O)c3ccc(N(C)C)cc3)CCN2C1=O | inconclusive: 112 µM [inhibitor, partial curve, poor fit] |

| Structure (SMILES) | Potency |
| --- | --- |
| COCCn1c(C)cnc1CC1CCCN(Cc2ccc(F)cc2F)C1 (configuration not stated) | inconclusive: 35.5 µM [inhibitor, partial curve, poor fit] |
| Clc1ccc(-c2nnc3n2CCN(Cc2cncs2)C3)cc1 | inactive |
| O=C(C1CC1)N1CCC(O)(c2csc(CN3CCc4ccccc4C3)n2)CC1 | inconclusive: 89.1 µM [inhibitor, partial curve] |
| Cc1ccc(S(=O)(=O)N2CCC(OC3CCN(Cc4ccccc4)CC3)CC2)c(C)c1 | inconclusive: 50.1 µM [inhibitor, partial curve, poor fit] |
| CC(C)Nc1ccc2nnc(-c3ccc(F)cn3)n2n1 | inconclusive: 141 µM [inhibitor, single point] |
| c1ccc(CN2Cc3[nH]cnc3C[C@H]2c2nc(-c3ccccc3)no2)cc1 | active: 70.8 µM |
| Cc1c(CN(C)Cc2cccc3ncccc23)c(=O)n(-c2ccccc2)n1C | inactive |
| COc1ccc(CN2CCNc3cc(Nc4ccccc4)ncc3C2)cn1 | active: 112 µM |
| O=C(N1CCC(Cc2nc(-c3ccccc3)n[nH]2)C1)C1(c2ccccc2)CC1 (configuration not stated) | active: 44.7 µM |
| O=C(NCc1ccc2c(c1)OCO2)c1nc(-c2cccnc2)c2ccccn12 | inconclusive: 79.4 µM [inhibitor, partial curve] |
| CN(C(=O)CN1C(=O)NC(c2ccc(Cl)cc2)C2=C1COC2=O)c1ccccc1 (configuration not stated) | inconclusive: 44.7 µM [inhibitor, partial curve, poor fit] |
| Cc1nc2n(n1)CCN(C(=O)c1ccc(Cl)cc1)C2 | inactive |
| CC1(C)C(=O)N(Cc2ccccc2)[C@H]2CN(CC3CCOCC3)C[C@@H]2[S+]1(=O)[O-] | inactive |
| CC1(C)[C@H](Cc2cc(-c3ccc(F)cc3)on2)C[C@@H]1NC1CCC1 | active: 39.8 µM |
| COc1ccc(CNC(=O)C[C@@H]2c3nc(NC(=O)c4c(F)cccc4F)sc3C[C@@H]3[C@](C)(CO)[C@H](O)CC[C@]32C)cc1 | inconclusive: 31.6 µM [inhibitor, full curve] |
| CN(C)Cc1nnc(C2CCCN(C(=O)CN(C)c3ccccc3)C2)n1C (configuration not stated) | inactive |
| CCC(CC)C(=O)NCc1cccnc1Oc1cccc(C(F)(F)F)c1 | inconclusive: 31.6 µM [inhibitor, full curve] |
| Cc1ccc(NC(=O)Cn2c(-c3ccc(Cl)cc3)nc(C)c(CCO)c2=O)cc1C | inconclusive: 44.7 µM [inhibitor, partial curve, poor fit] |
| CCOCc1nc(C2CCCN(C(=O)c3ccc(OC)cc3)C2)no1 (configuration not stated) | inactive |
| CCCCc1ccc(CN2C[C@@H]3CC[C@H](C2)N(Cc2ccccn2)C3=O)s1 | inconclusive: 50.1 µM [inhibitor, partial curve, poor fit] |
| COc1ccc(CNC(=O)c2cc(-c3cccc(C(F)(F)F)c3)c3nncn3n2)cc1OC | inconclusive: 44.7 µM [inhibitor, partial curve, poor fit] |

— PubChem BioAssay AID1345083 (National Center for Advancing Translational Sciences (NCATS), 2018)
